# The list shows a part of the results.
# B1: Cohesin-marm-DC-ASGPR-CRD (protein)
# chain: LDITSHHHHHHDDLDAVRIKVDTVNAKPGDTVRIPVRFSGIPSKGIANCDFVYSYDPNVLEIIEIEPGDIIVDPNPDKSFDTAVYPDRKIIVFLFAEDSGTGAYAITKDGVFATIVAKVKEGAPNGLSVIKFVEVGGFANNDLVEQKTQFFDGGVNVGDTTEPATPTTPVTTPTTTDDLDAASCPINWVEHQGSCYWFSRSGKTWPEAERYCQLENTHLVVINSREEQNFVQAHLGSAYTWMGLSDPEGVWKWVDGTDYSSGFQNWKPGQPDDWQGHGLGGGEDCAHFHPDGRWNDDVCQRSYHWVCEAGLTQASQDSH
# Assays:
# Assay in all cases: glycan array binding signal (z-score within array); higher = stronger binding
# Details in all cases: glycan notation: IUPAC condensed, linker removed
# Fuc(a1-2)Gal = molecular target: Fuc(a1-2)Gal
# Summary of the method: (§1)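 The binding signal is a Z-score computed within each array and averaged over linkers. Arrays of the same protein sequence at different concentrations or buffers were also averaged together. Data originate from 3228 arrays in the Consortium for Functional Glycomics database, kept only where the protein sequence was available.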
# Fuc(a1-2)Gal(b1-3)GalNAc = molecular target: Fuc(a1-2)Gal(b1-3)GalNAc
# Summary of the method: as §1
# [1] = molecular target: Fuc(a1-2)Gal(b1-3)GalNAc(a1-3)[Fuc(a1-2)]Gal(b1-4)Glc
# Summary of the method: as §1
# [2] = molecular target: Fuc(a1-2)Gal(b1-3)GalNAc(a1-3)[Fuc(a1-2)]Gal(b1-4)GlcNAc
# Summary of the method: as §1
# [3] = molecular target: Fuc(a1-2)Gal(b1-3)GalNAc(b1-3)Gal
# Summary of the method: as §1
# [4] = molecular target: Fuc(a1-2)Gal(b1-3)GalNAc(b1-3)Gal(a1-4)Gal(b1-4)Glc
# Summary of the method: as §1
# [5] = molecular target: Fuc(a1-2)Gal(b1-3)GalNAc(b1-4)[Neu5Ac(a2-3)]Gal(b1-4)Glc
# Summary of the method: as §1
# Fuc(a1-2)Gal(b1-3)GlcNAc = molecular target: Fuc(a1-2)Gal(b1-3)GlcNAc
# Summary of the method: as §1
# [6] = molecular target: Fuc(a1-2)Gal(b1-3)GlcNAc(b1-2)Man(a1-3)[Fuc(a1-2)Gal(b1-3)GlcNAc(b1-2)Man(a1-6)]Man(b1-4)GlcNAc(b1-4)GlcNAc
# Summary of the method: as §1
# [7] = molecular target: Fuc(a1-2)Gal(b1-3)GlcNAc(b1-2)Man(a1-3)[Fuc(a1-2)Gal(b1-3)GlcNAc(b1-2)Man(a1-6)]Man(b1-4)GlcNAc(b1-4)[Fuc(a1-6)]GlcNAc
# Summary of the method: as §1
# [8] = molecular target: Fuc(a1-2)Gal(b1-3)GlcNAc(b1-3)Gal(b1-4)Glc
# Summary of the method: as §1
# [9] = molecular target: Fuc(a1-2)Gal(b1-3)GlcNAc(b1-3)GalNAc
# Summary of the method: as §1
# [10] = molecular target: Fuc(a1-2)Gal(b1-3)GlcNAc(b1-3)[Fuc(a1-2)Gal(b1-3)GlcNAc(b1-6)]GalNAc
# Summary of the method: as §1
# [11] = molecular target: Fuc(a1-2)Gal(b1-3)GlcNAc(b1-3)[Gal(b1-4)GlcNAc(b1-6)]Gal(b1-4)Glc
# Summary of the method: as §1
# [12] = molecular target: Fuc(a1-2)Gal(b1-3)GlcNAc(b1-3)[Neu5Ac(a2-6)Gal(b1-4)GlcNAc(b1-6)]Gal(b1-4)Glc
# Summary of the method: as §1
# [13] = molecular target: Fuc(a1-2)Gal(b1-3)GlcNAc6S
# Summary of the method: as §1
# [14] = molecular target: Fuc(a1-2)Gal(b1-3)[Fuc(a1-4)]GlcNAc
# Summary of the method: as §1
# [15] = molecular target: Fuc(a1-2)Gal(b1-3)[Fuc(a1-4)]GlcNAc(b1-2)Man(a1-3)[Fuc(a1-2)Gal(b1-3)[Fuc(a1-4)]GlcNAc(b1-2)Man(a1-3)]Man(b1-4)GlcNAc(b1-4)GlcNAc
# Summary of the method: as §1
# [16] = molecular target: Fuc(a1-2)Gal(b1-3)[Fuc(a1-4)]GlcNAc(b1-2)Man(a1-3)[Fuc(a1-2)Gal(b1-3)[Fuc(a1-4)]GlcNAc(b1-2)Man(a1-6)]Man(b1-4)GlcNAc(b1-4)[Fuc(a1-6)]GlcNAc(b1-4)[Fuc(a1-6)]GlcNAc
# Summary of the method: as §1
# [17] = molecular target: Fuc(a1-2)Gal(b1-3)[Fuc(a1-4)]GlcNAc(b1-3)[Fuc(a1-3)[Gal(b1-4)]GlcNAc(b1-6)]Gal(b1-4)Glc
# Summary of the method: as §1
# [18] = molecular target: Fuc(a1-2)Gal(b1-3)[Fuc(a1-4)]GlcNAc(b1-3)[Gal(b1-4)GlcNAc(b1-6)]Gal(b1-4)Glc
# Summary of the method: as §1
# Fuc(a1-2)Gal(b1-4)Glc = molecular target: Fuc(a1-2)Gal(b1-4)Glc
# Summary of the method: as §1
# Fuc(a1-2)Gal(b1-4)Glc6S = molecular target: Fuc(a1-2)Gal(b1-4)Glc6S
# Summary of the method: as §1
# Fuc(a1-2)Gal(b1-4)GlcNAc = molecular target: Fuc(a1-2)Gal(b1-4)GlcNAc
# Summary of the method: as §1
# [19] = molecular target: Fuc(a1-2)Gal(b1-4)GlcNAc(b1-2)Man
# Summary of the method: as §1
# [20] = molecular target: Fuc(a1-2)Gal(b1-4)GlcNAc(b1-2)Man(a1-3)[Fuc(a1-2)Gal(b1-4)GlcNAc(b1-2)Man(a1-6)]Man(b1-4)GlcNAc(b1-4)GlcNAc
# Summary of the method: as §1
# [21] = molecular target: Fuc(a1-2)Gal(b1-4)GlcNAc(b1-2)Man(a1-3)[Fuc(a1-2)Gal(b1-4)GlcNAc(b1-2)Man(a1-6)]Man(b1-4)GlcNAc(b1-4)[Fuc(a1-6)]GlcNAc
# Summary of the method: as §1
# [22] = molecular target: Fuc(a1-2)Gal(b1-4)GlcNAc(b1-2)[Fuc(a1-2)Gal(b1-4)GlcNAc(b1-4)]Man(a1-3)[Fuc(a1-2)Gal(b1-4)GlcNAc(b1-2)Man(a1-6)]Man(b1-4)GlcNAc(b1-4)GlcNAc
# Summary of the method: as §1
# [23] = molecular target: Fuc(a1-2)Gal(b1-4)GlcNAc(b1-3)Gal(b1-4)GlcNAc
# Summary of the method: as §1
# [24] = molecular target: Fuc(a1-2)Gal(b1-4)GlcNAc(b1-3)Gal(b1-4)GlcNAc(b1-2)Man(a1-3)[Fuc(a1-2)Gal(b1-4)GlcNAc(b1-3)Gal(b1-4)GlcNAc(b1-2)Man(a1-6)]Man(b1-4)GlcNAc(b1-4)GlcNAc
# Summary of the method: as §1
# [25] = molecular target: Fuc(a1-2)Gal(b1-4)GlcNAc(b1-3)Gal(b1-4)GlcNAc(b1-3)Gal(b1-4)GlcNAc
# Summary of the method: as §1
# [26] = molecular target: Fuc(a1-2)Gal(b1-4)GlcNAc(b1-3)GalNAc
# Summary of the method: as §1
# [27] = molecular target: Fuc(a1-2)Gal(b1-4)GlcNAc(b1-3)[Fuc(a1-2)Gal(b1-4)GlcNAc(b1-6)]GalNAc
# Summary of the method: as §1
# [28] = molecular target: Fuc(a1-2)Gal(b1-4)GlcNAc(b1-3)[Fuc(a1-3)[Gal(b1-4)]GlcNAc(b1-6)]Gal(b1-4)Glc
# Summary of the method: as §1
# [29] = molecular target: Fuc(a1-2)Gal(b1-4)GlcNAc(b1-6)GalNAc
# Summary of the method: as §1
# [30] = molecular target: Fuc(a1-2)Gal(b1-4)GlcNAc6S
# Summary of the method: as §1
# [31] = molecular target: Fuc(a1-2)Gal(b1-4)[Fuc(a1-3)]GlcNAc
# Summary of the method: as §1
binder,measurement,setting,value
B1,glycan array binding signal (z-score),Fuc(a1-2)Gal,-0.385
same,glycan array binding signal (z-score),Fuc(a1-2)Gal(b1-3)GalNAc,-0.443
same,glycan array binding signal (z-score),[1],-0.446
same,glycan array binding signal (z-score),[2],-0.394
same,glycan array binding signal (z-score),[3],-0.101
same,glycan array binding signal (z-score),[4],-0.384
same,glycan array binding signal (z-score),[5],0.811
same,glycan array binding signal (z-score),Fuc(a1-2)Gal(b1-3)GlcNAc,-0.354
same,glycan array binding signal (z-score),[6],-0.157
same,glycan array binding signal (z-score),[7],-0.081
same,glycan array binding signal (z-score),[8],-0.445
same,glycan array binding signal (z-score),[9],-0.422
same,glycan array binding signal (z-score),[10],-0.398
same,glycan array binding signal (z-score),[11],-0.456
same,glycan array binding signal (z-score),[12],-0.438
same,glycan array binding signal (z-score),[13],0.263
same,glycan array binding signal (z-score),[14],-0.443
same,glycan array binding signal (z-score),[15],-0.408
same,glycan array binding signal (z-score),[16],-0.413
same,glycan array binding signal (z-score),[17],-0.447
same,glycan array binding signal (z-score),[18],-0.444
same,glycan array binding signal (z-score),Fuc(a1-2)Gal(b1-4)Glc,-0.347
same,glycan array binding signal (z-score),Fuc(a1-2)Gal(b1-4)Glc6S,-0.446
same,glycan array binding signal (z-score),Fuc(a1-2)Gal(b1-4)GlcNAc,-0.393
same,glycan array binding signal (z-score),[19],-0.404
same,glycan array binding signal (z-score),[20],-0.256
same,glycan array binding signal (z-score),[21],-0.057
same,glycan array binding signal (z-score),[22],-0.426
same,glycan array binding signal (z-score),[23],-0.45
same,glycan array binding signal (z-score),[24],-0.27
same,glycan array binding signal (z-score),[25],-0.447
same,glycan array binding signal (z-score),[26],-0.411
same,glycan array binding signal (z-score),[27],0.02
same,glycan array binding signal (z-score),[28],-0.447
same,glycan array binding signal (z-score),[29],2.67
same,glycan array binding signal (z-score),[30],-0.446
same,glycan array binding signal (z-score),[31],-0.4

# — the supplement of paper PMC8728848
